Source: paper PMC4336329 (PLoS ONE, 2015)
Hit rate of the full screen: of about 310,000 compounds, about 14,000 (4.5%) showed an effect of 50% or more. Effects have a minus sign here. Some of the results follow.

target: human ether-à-go-go-related gene (hERG) potassium channel (human, UniProt Q12809); assay: primary screen, population patch clamp on CHO cells stably expressing hERG
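Further: peak tail current of the secondary pulse compared with the same well before compound.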

human ether-à-go-go-related gene (hERG) potassium channel, sequence (Q12809 whole entry, looked up): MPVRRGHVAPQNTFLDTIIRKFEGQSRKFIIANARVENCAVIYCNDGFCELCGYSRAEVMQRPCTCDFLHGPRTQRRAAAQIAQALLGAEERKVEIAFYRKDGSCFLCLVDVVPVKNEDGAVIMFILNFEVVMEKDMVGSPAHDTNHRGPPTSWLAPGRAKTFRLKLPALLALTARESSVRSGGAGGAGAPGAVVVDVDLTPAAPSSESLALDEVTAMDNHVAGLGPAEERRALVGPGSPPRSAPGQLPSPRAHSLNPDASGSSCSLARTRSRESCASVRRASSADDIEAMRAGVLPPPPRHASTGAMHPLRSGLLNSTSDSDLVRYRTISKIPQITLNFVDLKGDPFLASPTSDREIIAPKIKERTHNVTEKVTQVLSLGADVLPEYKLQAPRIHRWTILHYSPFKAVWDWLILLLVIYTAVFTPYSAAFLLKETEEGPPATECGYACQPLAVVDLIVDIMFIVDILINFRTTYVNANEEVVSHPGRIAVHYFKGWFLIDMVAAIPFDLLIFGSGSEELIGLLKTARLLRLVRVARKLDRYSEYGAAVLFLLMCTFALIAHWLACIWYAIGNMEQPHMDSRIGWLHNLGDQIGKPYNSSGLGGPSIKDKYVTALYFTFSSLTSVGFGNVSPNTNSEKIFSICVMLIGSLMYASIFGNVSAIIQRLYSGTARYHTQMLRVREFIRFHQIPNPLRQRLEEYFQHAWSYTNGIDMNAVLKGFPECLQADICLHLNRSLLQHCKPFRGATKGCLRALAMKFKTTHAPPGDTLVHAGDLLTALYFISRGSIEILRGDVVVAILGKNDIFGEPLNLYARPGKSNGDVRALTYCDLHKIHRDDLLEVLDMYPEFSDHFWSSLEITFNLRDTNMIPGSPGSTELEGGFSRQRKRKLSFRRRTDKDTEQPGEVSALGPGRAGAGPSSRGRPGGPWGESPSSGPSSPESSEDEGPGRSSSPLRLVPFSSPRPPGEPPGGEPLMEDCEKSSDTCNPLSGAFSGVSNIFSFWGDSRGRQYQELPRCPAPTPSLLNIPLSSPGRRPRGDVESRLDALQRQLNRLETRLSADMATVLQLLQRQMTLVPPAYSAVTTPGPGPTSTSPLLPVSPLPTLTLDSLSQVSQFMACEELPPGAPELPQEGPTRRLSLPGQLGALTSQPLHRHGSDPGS

SMILES	hERG current change (%, negative = inhibition) at 10uM
CC1CCCC(NC(=O)CCn2c(=S)oc3ccccc32)C1C (stereo not drawn)	15.8%
Cc1occc1C(=O)N/N=C/c1ccc[nH]1	12.9%
CCOC(=O)CC1CCCCN1Cc1cn(C)nc1-c1ccc2c(c1)OCCO2 (stereo not drawn)	-11.2%
CCOC(=O)c1cnc(SCC(=O)N2CCc3ccccc32)nc1N	1.07%
O=c1oc2ccccc2cc1-c1csc(Cc2nc(-c3ccc(Br)cc3)cs2)n1	-1.64%
O=S1(=O)CCN(Cc2ccccc2C(F)(F)F)CC1	15.4%
COCCCNC(=O)c1cc2c(-c3cccc(OC)c3)nn(C)c2s1	-5.59%
Cc1cc(NC(=O)C(C)C)ncc1NC(=O)Cc1ccccc1	12.3%
Cc1ccc(C(=O)CSc2ncnc3sc4c(c23)CCCC4)cc1	-0.316%
COC(=O)N1CCN(c2ccc(OC)cc2)CC1	4.33%
COc1ccc(C2CC(=O)N(C)c3ccccc3S2)cc1 (stereo not drawn)	-12.9%
CC(C)Oc1ccc(C(=O)OC(C)C(=O)NC2CCCCC2C)cc1 (stereo not drawn)	5.69%
CCN(CCn1cccn1)C(=O)CC1C(=O)NCCN1CC1CCCCC1 (stereo not drawn)	15.4%
CSc1cccc(NC(=O)CSc2nc3ccccc3o2)c1	-0.335%
COc1cc(OC)c(N(C)S(=O)(=O)c2cccc(C(=O)OCC(=O)NCc3ccco3)c2)cc1Cl	-6.99%
COCCn1c(SCC(=O)NCc2ccc(F)cc2)nc2ccccc21	-27.8%
CCOC(=O)C1=C(COC(=O)/C=C/c2ccccc2F)NC(=O)NC1C (stereo not drawn)	2.58%
O=C(COc1ccccc1)NCC(=O)N1CCCCCC1	7.21%
Cc1ccc2nc(C)cc(C(=O)N3CCCC(N4CCN(c5ccccc5C)CC4)C3)c2c1 (stereo not drawn)	-42.7%

SMILES	hERG current change (%, negative = inhibition) at 10uM
O=C(c1ccc2c(c1)OCO2)C1CCCN(Cc2cc(F)ccc2-n2cccn2)C1 (stereo not drawn)	-74.9%
O=C(N/N=C/c1cc(Cl)cc(Cl)c1O)c1ccncc1	-12.1%
O=c1c2ccccc2nc2oc3ccccc3n12	0.394%
CCOC(=O)C1CCN(C(=O)c2cc(S(=O)(=O)N3CCOCC3)c(Cl)cc2Cl)CC1	-50.1%
O=C(Nc1ccc(N2CCCCC2)c(Cl)c1)c1cccnc1	0.712%
CC1c2cc3c(cc2CCN1C(=O)c1cccc(Cl)c1)OCCCO3 (stereo not drawn)	-15.2%
CCOC(=O)c1c(CN2CCCCC2)n(C)c2ccc(OC)c(S(=O)(=O)c3ccccc3)c12	-47.2%
COc1cccc(NC(=O)COC(=O)c2ccco2)c1	9.28%
COc1cc(C(=O)CSc2nccn2C)cc(OC)c1OC	25.5%
CCOc1ccc(C(=O)NCC(=O)N2CCc3ccccc3C2)cc1OCC	4.5%
Cc1nc(NC(=O)/C=C/c2ccccc2)n[nH]1	10.1%
Cc1ccc(CNC(=O)c2ccc(CS(=O)Cc3cccc(Cl)c3)o2)cc1 (stereo not drawn)	-21.5%
O=C1/C(=C\c2ccco2)SC(=S)N1Cc1ccccc1	10.8%
Cc1ccnc(NC(=S)NC(=O)/C=C/c2ccccc2)c1	4.52%
CC(=O)N1CCN(c2ccccc2NC(=O)c2cccs2)CC1	-43.8%
Cc1nc2c(ccc3c2ccc2nc(C)sc23)s1	14.2%
Cn1c(=O)[nH]c(=O)c2c1nc1n2CCN1Cc1ccccc1	14.7%
CC(C)Cn1c(N)c(C(=O)CSc2nc3ccccc3c(=O)n2CCCN2CCOCC2)c(=O)n(C)c1=O	-22.2%
CC(O)c1nc2ccccc2n1CC(=O)N1CCN(c2ccccc2)CC1 (stereo not drawn)	18%

SMILES	hERG current change (%, negative = inhibition) at 10uM
CCC(C)[C@H]1CNCCN1CCCc1cc(OC)c(OC)c(OC)c1 (stereo partly drawn)	4.12%
Cc1nn(CC(=O)c2ccc(Cl)s2)c(C)c1[N+](=O)[O-]	-1.58%
Cc1ccc(NCc2nnc(SCC(=O)Nc3nnc(C)s3)n2C)cc1	-1.72%
CCCCn1nc(-c2ccccc2)c2nc3ccccc3nc21	5.86%
CCCOc1ccc(S(=O)(=O)NCCN2CCOCC2)c2ccccc12	-23.3%
O=C(Nc1cc(S(=O)(=O)N2CCOCC2)ccc1N1CCOCC1)c1ccc(S(=O)(=O)N2CCCCC2)cc1	-1.72%
Cc1ccc(C(=O)N/N=C\C2CC=CCC2)cc1[N+](=O)[O-] (stereo not drawn)	-4.86%
Cc1ccc(CCN2CC(C(=O)NCCN3CCOCC3)CC2=O)cc1 (stereo not drawn)	11.9%
COc1ccc(N(C(=O)c2ccco2)C(C(=O)NC2CCCC2)c2ccco2)cc1OC (stereo not drawn)	8.03%
COc1ccc(OC)c(NS(=O)(=O)c2ccc(-c3coc(C)n3)cc2)c1	0.503%
CN(C)c1ccc(P(=O)(OC2CCCCC2)C(O)c2ccncc2)cc1 (stereo not drawn)	11.2%
COc1ccc(-n2c3c(c(=O)[nH]c2=O)C(NC(=O)c2ccncc2)(C(F)(F)F)C(=O)N3)cc1 (stereo not drawn)	18.1%
O=C(NCCCN1CCOCC1)c1ccc(NS(=O)(=O)c2ccccc2)cc1	17%
Cl.O=C(CSc1cccc[n+]1[O-])Nc1ccc(N2CCOCC2)cc1	6.17%
Cc1ccc(/C=N/NC(=O)c2nn(C)cc2Cl)cc1	-10.9%
COCCn1ccc(O)c(Cc2ccccc2)c1=O	15.5%
CCN(CC)S(=O)(=O)c1ccc(C(=O)C(C#N)c2ccccn2)cc1 (stereo not drawn)	12.4%
CCOC(=O)[C@H]1[C@H]2COc3ccc(C)cc3[C@@H]2N2C(=O)CN(CC3CCCO3)C(=O)[C@@]12C (stereo partly drawn)	7.72%
COc1ccc(NC(=O)CCCc2nnc3n(C)c(=O)c4sccc4n23)cc1	-14%
